About 800 (1.6%) of roughly 50,000 compounds showed an effect of 50% or more. The list shows a part of the results.
target: Bcl-2-like protein 10 (Homo sapiens) (UniProt Q9HD36); assay: TR3 peptide-Bcl-B binding displacers, biochemical primary FP assay, phenotype converters (AID 1240); conditions: GST-Bcl-B / FITC-TR3 peptide fluorescence polarization; stronger effect = higher value; compound at 3.75 mg/L;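 further: 0% = Bcl-B with tracer peptide and DMSO and 100% = tracer peptide lacking Bcl-B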
Chain of UniProt Q9HD36 (Q9HD36 whole entry, looked up): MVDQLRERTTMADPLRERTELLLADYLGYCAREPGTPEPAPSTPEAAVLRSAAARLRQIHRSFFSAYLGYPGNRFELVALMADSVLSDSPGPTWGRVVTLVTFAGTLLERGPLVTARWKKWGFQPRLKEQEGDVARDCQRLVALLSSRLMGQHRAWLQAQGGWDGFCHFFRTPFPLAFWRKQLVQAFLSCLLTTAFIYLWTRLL

Row | SMILES | displacement [%]
1 | ON1C(c2ccccc2)CC2(O)c3nonc3CCC12 (configuration not stated) | 0.3
2 | Cc1ccc(CCC(=O)Nc2ncc(Cc3cccc(Cl)c3)s2)o1 | 15.9
3 | O=C(CSc1ccc(Cl)cc1)Nc1ccc(F)c(Cl)c1 | -11.1
4 | Cc1ccc(C2=NOC(=O)/C2=C\C=C\c2ccccc2)cc1 | 9.5
5 | Cc1c(-c2nc(-c3ccc(Cl)cc3)no2)cccc1[N+](=O)[O-] | -4.7
6 | CC12C(=O)C(C)(C(c3ccccc3)=C1c1ccccc1)C1C(=O)N(c3ccccc3Cl)C(=O)C12 (configuration not stated) | 4.4
7 | COC(=O)C1=C(C)NC(=O)CC1c1c(F)cccc1Cl (configuration not stated) | 5.7
8 | Cc1ccc(C2=N/C(=C\c3ccc([N+](=O)[O-])cc3)C(=O)O2)cc1 | -0.4
9 | COc1ccc(C(=O)/C=C/c2ccc(OC)c3cccc(O)c23)cc1OC | -13.4
10 | O=C(Oc1cccc(/C=N/NC(=O)c2ccccn2)c1)c1cccc(F)c1 | -4.2
11 | CC1=C(C#N)C(=O)NC(=O)/C1=C\c1ccc(-c2cccc(Cl)c2)o1 | 24.7
12 | CC(=O)N1CCN(c2cc(N3CCOCC3)c(F)cc2[N+](=O)[O-])CC1 | -17.4
13 | O=C(C1=C(Nc2ccc(Br)cc2)CCCC1)C(F)(F)F | 5.4
14 | CCOc1ccccc1C(=O)N/N=C/c1cn(-c2ccccc2)nc1-c1ccc(OC)cc1 | -5.8
15 | CCOCCOC(=O)c1cccc(NC(=O)/C=C/c2ccccc2)c1 | -3.9
16 | Cc1cc(C)n(C2=NNC(n3nc(C)cc3C)=NN2)n1 | 1.6
17 | O=C(Nc1ccc(I)cc1Cl)c1cccc(OCc2ccccc2)c1 | -4.2
18 | CC1(C)CC(=O)C2=C(C1)Nc1ccccc1NC2c1cccc(C(F)(F)F)c1 (configuration not stated) | -10.1
19 | O=C(O)C1CSC(c2ccc(Cl)c([N+](=O)[O-])c2)N1 (configuration not stated) | -0.9
20 | COc1ccc2oc(=O)c(-c3csc(Nc4ccccc4)n3)cc2c1 | -13.5
21 | COc1ccc(NC(=O)C2CC2)c2ncccc12 | 8
22 | C=CCN1C(=O)/C(=C\c2ccc(OC)cc2)C(C(=O)OC)=C1C | 1.4

Row | SMILES | displacement [%]
23 | O=[N+]([O-])c1ccc(/C=N/Nc2nnc(-c3ccccc3)c(-c3ccccc3)n2)cc1 | 1.6
24 | COc1ccc(N2C(=O)c3ccccc3NC2c2ccccc2F)cc1 (configuration not stated) | 11.6
25 | O=C1CCC(=O)N1c1ccc(Oc2cccc(Oc3ccc(N4C(=O)CCC4=O)cc3)c2)cc1 | 4.4
26 | CC1C(c2ccc(Cl)cc2)NC(c2ccc(Cl)cc2)C(C)C1(C)O (configuration not stated) | -8
27 | O=C(CN1C(=O)c2ccccc2C1=O)Nc1ccc(F)c(F)c1 | 9.6
28 | CSc1nc(N)c(C#N)c(-c2ccccc2)c1C#N | -11
29 | COc1ccc2oc(=O)c(C(=O)Nc3cccc(C(C)=O)c3)cc2c1 | 0.2
30 | O=C(O)CN1C(=O)/C(=C\c2cc([N+](=O)[O-])ccc2Cl)SC1=S | 28.4
31 | COc1cc(/C=C2\SC(=S)N(c3ccc(F)cc3)C2=O)cc(OC)c1OC | 3.3
32 | COc1cc(NC(=O)c2ccc3ccccc3c2)c(OC)cc1Cl | -10.9
33 | COc1cc(/C=c2\sc3nc4ccccc4n3c2=O)ccc1OS(=O)(=O)c1ccccc1[N+](=O)[O-] | 1.7
34 | Cc1ccc(Nc2nc3nonc3n3cnnc23)cc1C | -5.9
35 | COc1ccc2noc3c2c1C(=O)c1ccccc1-3 | 127
36 | N#CC1=C(N)Oc2c(ccc3ccccc23)C1c1ccc2c(c1)OCO2 (configuration not stated) | -6
37 | COC(=O)c1ccc(/C=C2/SC(=S)N(CC(=O)O)C2=O)cc1 | 15
38 | CCOC(=O)c1c(NC(=O)Cc2ccc(OC)cc2)sc2c1CCN(C(=O)OCC)C2 | -6
39 | O=C1c2ccccc2C2(c3ccc(Cl)cc3)N1CCN2C(=S)Nc1ccccc1 (configuration not stated) | -12.9
40 | CCOC(=O)c1c(NC(=O)Cn2nc(C(F)(F)F)cc2C)sc2c1CCC(C)C2 (configuration not stated) | 16.8
41 | CC(C)(C)c1cc(C(=O)N/N=C/c2ccc([N+](=O)[O-])cc2)n[nH]1 | -4.7
42 | COc1ccc(/C=C/C(=O)Nc2cc(C)ccc2C)cc1 | 17.1
43 | CCC(=O)N1CCN(CCN=CC2=C(O)CC(C)(C)CC2=O)CC1 | 10.3
44 | Cc1ccccc1-c1noc(-c2cccs2)n1 | -5.9

Row | SMILES | displacement [%]
45 | Nc1nnnn1/N=C/c1ccc(C=O)cc1 | 12.4
46 | COc1cc2c(cc1OC)-c1nnc(-c3cccs3)n1C(C)(C)C2 | 2.4
47 | Cc1cccc(OCCCCNC(C)(C)C)c1C | -1.1
48 | Nc1nc(Nc2ccccc2)nc(NCc2ccccc2)c1[N+](=O)[O-] | 4.6
49 | Cc1cccc(-n2c(C)cc(C=C3C(=O)NC(=S)NC3=O)c2C)c1 | 72.3
50 | COc1ccccc1NC(=O)C(=O)N/N=C/c1ccc2c(c1)OCO2 | 8.5
51 | c1ccc(C2CC3CC(c4ccccc4)N2O3)cc1 (configuration not stated) | 1.9
52 | Cc1cc(C(=O)Nc2cccc(C)c2C)ccc1[N+](=O)[O-] | 15.9
53 | Cc1ccc(/C(N)=N/OC(=O)c2ccc(Br)cc2)cc1 | -1.1
54 | CN(C)c1cc(N/N=C/c2ccncc2)nc(N(C)C)n1 | 10.6
55 | O=C(/C=C/c1ccc(-c2cccc([N+](=O)[O-])c2)o1)c1cc2ccccc2o1 | 119
56 | CCN(CC)c1ccc(NC(=O)c2cccnc2)cc1 | 18.5
57 | COC(=O)c1ccc(C2Nc3ccc4ccccc4c3C3=C2CC(C)(C)CC3=O)cc1 (configuration not stated) | 23.7
58 | O=C(Nc1ccc(F)c([N+](=O)[O-])c1)c1ccc2ccccc2c1 | 12.9
59 | CC1(C)CC(=O)C(C(C2=C(O)CC(C)(C)CC2=O)c2ccccc2Cl)C(=O)C1 (configuration not stated) | -3.4
60 | CCC(=O)Nc1sc2c(c1C(=O)Nc1ccccc1Cl)CCCC2 | 11.8
61 | O=C(CSc1nc2ccccc2[nH]1)c1ccc(-c2ccccc2)cc1 | 14.5
62 | CCOC(=O)C1=C(O)/C(=C\c2cccc([N+](=O)[O-])c2)SC1=Nc1ccc(OC)cc1 | -16.3
63 | Oc1ccccc1C=Nc1ccc2c(c1)ncn2CCn1cnc2cc(N=Cc3ccccc3O)ccc21 | 115
64 | CCOC(=O)c1c(-c2ccc(OC)cc2)csc1NC(=O)C1CC=CCC1C(=O)O (configuration not stated) | 7.1
65 | CCCOc1ccc(N2C(=O)CC(SC(N)=Nc3ccccc3)C2=O)cc1 (configuration not stated) | 6.5
66 | O=C(Cc1ccccc1)Nc1nc(-c2ccc3c(c2)Cc2ccccc2-3)cs1 | 11

Row | SMILES | displacement [%]
67 | CCOC(=O)CSc1nc2c(c(=O)n1-c1ccc(OC)cc1)C1(CCCCC1)Cc1ccccc1-2 | -5
68 | COc1ccc(C2C(C#N)=C(N)Oc3c2sc2ccccc32)c2ccccc12 (configuration not stated) | -6.7
69 | COCCNC(=S)Nc1c(C)n(C)n(-c2ccccc2)c1=O | 1.8
70 | COc1ccc(NC(=O)COc2ccc(Br)c(C)c2)cc1OC | -9.1
71 | CCS/C(=N/Nc1cccc(Cl)c1C)C(C)=O | 7.3
72 | Cc1cc(NCCO)nc(-n2nc(C)cc2C)n1 | 12.1
73 | O=S(=O)(c1ccccc1)N1CCN(S(=O)(=O)c2ccccc2)C(O)C1O (configuration not stated) | -1.5
74 | NC(=O)c1ccccc1NC(=O)c1ccccc1[N+](=O)[O-] | 5
75 | CC(=O)Nc1nc2ccccc2n1Cc1ccc(C)cc1 | -16.7
76 | COc1ccc(C(=O)Nc2cc(C)ccc2O)cc1 | -3.2
77 | Cc1cccc(C(=O)Oc2ccc3c(C)cc(=O)oc3c2)c1 | -2.9
78 | Cc1ccc(N2CC(C(=O)NCc3ccco3)CC2=O)cc1 (configuration not stated) | 4
79 | CCC1=NN2C(=N)/C(=C/c3ccc(F)cc3)C(=O)N=C2S1 | 7.5
80 | O=C(COc1ccc2ccccc2c1)N/N=C/c1ccccc1[N+](=O)[O-] | -1.9
81 | COC(=O)c1ccc(N2C(=O)c3ccc(C(=O)c4ccc5c(c4)C(=O)N(c4ccc(C(=O)OC)cc4)C5=O)cc3C2=O)cc1 | 5.2
82 | COC(=O)CN(c1ccc(Br)cc1)S(C)(=O)=O | 4.7
83 | COc1ccc(C(=O)N2CCN(C3CCN(Cc4ccccc4)CC3)CC2)cc1 | -3.5
84 | Cc1cccc(-c2cc(NC(=O)COc3ccccc3)n[nH]2)c1 | 12.6
85 | COc1ccc(/C=C/C(=O)c2ccc(F)cc2)cc1[N+](=O)[O-] | 6.5
86 | C/C(=N\Nc1nc(C)cc(-c2ccccc2)n1)c1c(F)c(F)c(F)c(F)c1F | -0.6
87 | C1=C(c2ccc(C3CCCCC3)cc2)N2CCN=C2S1 | -2.8
88 | CCOC(=O)c1c(NC(C)=O)sc2c1CC(C)(C)OC2 | 0

Row | SMILES | displacement [%]
89 | COCc1cc(=O)n2[nH]c(-c3ccc(Cl)cc3)cc2n1 | 7.7
90 | CCC1=NN2C(=N)/C(=C/c3ccc(OCCOc4cccc(OC)c4)c(OC)c3)C(=O)N=C2S1 | 9.3
91 | Cc1ccc(-n2nc3cc(C)c(NC(=O)c4cc5ccccc5o4)cc3n2)cc1 | 9.1
92 | COc1ccc(S(=O)(=O)N(CC(=O)Nc2cccc(C(F)(F)F)c2)Cc2ccccc2)cc1 | 8.9
93 | CCOC(=O)c1c(-c2ccccc2)csc1NC(=O)c1ccc(OC(C)C)cc1 | -5.9
94 | O=C(C(Sc1ccccc1)c1ccccc1)N1CCCC1 (configuration not stated) | -3
95 | COc1ccccc1/C=C/C(=O)NCC(=O)N/N=C(/C)c1ccccc1 | 1.7
96 | Cc1ccc(C(C)C)c(OCCNC(=O)c2cccs2)c1 | -2.3
97 | C=CCN1C(=O)/C(=C\c2ccc(-c3ccc(F)cc3)o2)C(=O)NC1=S | -3.3
98 | O=C(Cc1ccccc1)NC(NC(=S)Nc1ccccc1Br)C(Cl)(Cl)Cl (configuration not stated) | -15.3
99 | O=C1NC(=S)N(c2ccc(Cl)cc2)C(=O)/C1=C\c1ccc(-c2cccc(C(=O)O)c2)o1 | 16
100 | COCCN1C(=O)C(=O)/C(=C(/O)c2ccccc2)C1c1ccc(Br)cc1 (configuration not stated) | -15.9
101 | N/C(=N\N=C\c1cc(Br)cc(Br)c1O)c1nonc1N | 0.3
102 | CC(=O)OCC12CC=C(C)C(C1)C(c1ccccc1OC(C)=O)OC2 (configuration not stated) | -5.7
103 | CN(C)c1ccc(C2C(C#N)=C(N)OC3=C2C(=O)CC(C)(C)C3)cc1 (configuration not stated) | -1.1
104 | COc1cc(/C=N/n2nnnc2N)cc(I)c1O | 0.5
105 | COc1cc2c(cc1NC(=O)c1c(-c3ccccc3)noc1C)oc1ccccc12 | 1.8
106 | Cc1ccc(/C=C2\SC(N3CCCCCC3)=NC2=O)cc1 | -19.3
107 | COCCCN1C(=O)/C(=C\c2ccccc2[N+](=O)[O-])C(C(=O)OC)=C1C | -8.8

Reference: PubChem BioAssay AID1240 (Sanford-Burnham Center for Chemical Genomics, 2008)
